This note sets out measurements from the supplement of paper PMC10037445.

The full ranking holds about 2,900 compounds; the median of “NF-kB SEAP reporter activity, fold change vs agonist alone” is about 0.99, and the highest 2% start at about 2.6. The list shows a part of the results.

For assay [1], the system named is RAW-Dual. Put plainly: NF-kB SEAP reporter activity, fold change vs agonist alone; cytotoxicity flag (confluency mask): not cytotoxic; higher = enhanced NF-kB activity. A digest of the protocol: (§1)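 RAW-Dual macrophages were seeded in DMEM at 50,000 cells/well in 384-well plates, given 50 nL of library stock by pin tool, and given a PRR agonist 1 h later. Plates were held at 37 °C, 5% CO2 for 20 hours, after which supernatant was read for IRF by QuantiLuc luminescence and for NF-κB by QuantiBlue absorbance at 620 nm. Reporter activity is expressed as fold change over wells that received agonist alone. A well was called cytotoxic when IncuCyte confluency fell below 70% of agonist controls in both mask sets.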

Assay [2] relates to RAW-Dual. Put plainly: NF-kB SEAP reporter activity, fold change vs agonist alone; higher = enhanced NF-kB activity. The settings on record: cytotoxicity flag (confluency mask): not cytotoxic. A digest of the protocol:
as §1

Where [3] appears, read: agonist: ODN 1826 (TLR9) 0.5 ug/mL.
[4] abbreviates: agonist: Pam2CSK4 (TLR2/6) 0.1 ug/mL.
Setting [5] is: agonist: Pam3CSK4 (TLR2/1) 0.1 ug/mL.
Setting [6] is: library stock concentration (final ~1000-fold dilution): 10 mM, agonist: Imiquimod (TLR7) […].
Setting [7] is: library stock concentration (final ~1000-fold dilution): 10 mM, agonist: MPLA (TLR4) […].

For `CCCCNNC(=O)c1ccc(Br)cc1` (library stock concentration (final ~1000-fold dilution): 10 mM), the “NF-kB SEAP reporter activity” value in the assay with RAW-Dual [1] (agonist: LPS (TLR4) 0.1 ug/mL) turned out to be 3.15; with RAW-Dual [1] (setting [3]) it was 2.18; in the assay with RAW-Dual [1] (setting [4]), 0.64; in the assay with RAW-Dual [1] (setting [5]), 0.656.

`CCCCNNC(=O)c1ccc(Br)cc1`: the entries for the “NF-kB SEAP reporter activity” value with RAW-Dual [2] (setting [6]) and in the assay with RAW-Dual [2] (setting [7]) were 1.95 and 2.28, respectively.

`CNc1nc(Nc2cnn(C3CCN(C4COC4)CC3F)c2Cl)ncc1C(F)(F)F` (stereo unspecified): the figures for the “NF-kB SEAP reporter activity” value with RAW-Dual [2] (setting [6]) and with RAW-Dual [2] (setting [7]) were 1.06 and 1.27, respectively.

For `CNc1nc(Nc2cnn(C3CCN(C4COC4)CC3F)c2Cl)ncc1C(F)(F)F` (stereo unspecified) (library stock concentration (final ~1000-fold dilution): 10 mM), the “NF-kB SEAP reporter activity” value in the assay with RAW-Dual [1] (agonist: LPS (TLR4) 0.1 ug/mL) was determined as 0.973; in the assay with RAW-Dual [1] (setting [3]), 1.06; in the assay with RAW-Dual [1] (setting [4]), 1.24; in the assay on RAW-Dual [1] (setting [5]), 1.57.

On to `O=c1c2ccccc2nc(/C=C/c2cccnc2)n1Cc1ccccc1` (library stock concentration (final ~1000-fold dilution): 10 mM), for which the “NF-kB SEAP reporter activity” value in the assay on RAW-Dual [1] (agonist: LPS (TLR4) 0.1 ug/mL) was found to be 0.688; with RAW-Dual [1] (setting [3]) it was 0.988; in the assay on RAW-Dual [1] (setting [4]), 1.22; with RAW-Dual [1] (setting [5]), 0.491.

Regarding `O=c1c2ccccc2nc(/C=C/c2cccnc2)n1Cc1ccccc1`, the “NF-kB SEAP reporter activity” value in the assay on RAW-Dual [2] (setting [6]) was 0.86; with RAW-Dual [2] (setting [7]), 0.915.

As for `CC(=O)Oc1cccc2c1C(=O)c1c(OC(C)=O)cc(C(=O)O)cc1C2=O` (library stock concentration (final ~1000-fold dilution): 10 mM), the “NF-kB SEAP reporter activity” value turned out to be 1.62 in the assay with RAW-Dual [1] (agonist: LPS (TLR4) 0.1 ug/mL), 1.08 in the assay with RAW-Dual [1] (setting [3]), 1.41 with RAW-Dual [1] (setting [4]) and 1.34 with RAW-Dual [1] (setting [5]).

Turning to `CC(=O)Oc1cccc2c1C(=O)c1c(OC(C)=O)cc(C(=O)O)cc1C2=O`, the “NF-kB SEAP reporter activity” value in the assay with RAW-Dual [2] (setting [6]) was 0.961; with RAW-Dual [2] (setting [7]) it was 1.07.

With `CC(C)(C#N)c1ccc(N2C(=O)OCc3cnc4ccc(-c5cnc6ccccc6c5)cc4c32)cc1`, the “NF-kB SEAP reporter activity” value with RAW-Dual [2] (setting [6]) was found to be 0.847; with RAW-Dual [2] (setting [7]), 1.16.

As for `CC(C)(C#N)c1ccc(N2C(=O)OCc3cnc4ccc(-c5cnc6ccccc6c5)cc4c32)cc1` (library stock concentration (final ~1000-fold dilution): 10 mM), the “NF-kB SEAP reporter activity” value worked out at 0.974 with RAW-Dual [1] (agonist: LPS (TLR4) 0.1 ug/mL), 0.919 with RAW-Dual [1] (setting [3]), 0.699 in the assay on RAW-Dual [1] (setting [4]) and 0.989 in the assay on RAW-Dual [1] (setting [5]).

As to `CN(C)c1ccc(-c2nc3c(N4CCN(CC(=O)Nc5nccs5)CC4)c(Cl)cnc3[nH]2)cc1`, the “NF-kB SEAP reporter activity” value is 1.22 in the assay with RAW-Dual [2] (library stock concentration (final ~1000-fold dilution): 2 mM, agonist: Imiquimod (TLR7) […]) and 1.24 in the assay with RAW-Dual [2] (library stock concentration (final ~1000-fold dilution): 2 mM, agonist: MPLA (TLR4) […]).

Take `CN(C)c1ccc(-c2nc3c(N4CCN(CC(=O)Nc5nccs5)CC4)c(Cl)cnc3[nH]2)cc1` (library stock concentration (final ~1000-fold dilution): 2 mM): the “NF-kB SEAP reporter activity” value turned out to be 1.07 in the assay on RAW-Dual [1] (agonist: LPS (TLR4) 0.1 ug/mL), 1.3 with RAW-Dual [1] (setting [3]), 1.07 with RAW-Dual [1] (setting [4]) and 1.49 in the assay with RAW-Dual [1] (setting [5]).

On to `O=C1c2ccc(Nc3ccc(F)cc3F)cc2CCc2ccc(OCC(O)CO)cc21` (stereo unspecified), for which the results for the “NF-kB SEAP reporter activity” value in the assay with RAW-Dual [2] (setting [6]) and with RAW-Dual [2] (setting [7]) were 0.817 and 1.33, respectively.

With `O=C1c2ccc(Nc3ccc(F)cc3F)cc2CCc2ccc(OCC(O)CO)cc21` (stereo unspecified) (library stock concentration (final ~1000-fold dilution): 10 mM), the “NF-kB SEAP reporter activity” value was found to be 0.949 in the assay on RAW-Dual [1] (agonist: LPS (TLR4) 0.1 ug/mL), 0.401 in the assay on RAW-Dual [1] (setting [3]), 0.236 in the assay on RAW-Dual [1] (setting [4]) and 0.38 in the assay on RAW-Dual [1] (setting [5]).

Take `O=C(Nc1ncc([N+](=O)[O-])s1)c1ccccc1O` (library stock concentration (final ~1000-fold dilution): 10 mM): the “NF-kB SEAP reporter activity” value with RAW-Dual [1] (agonist: LPS (TLR4) 0.1 ug/mL) is 0.954; in the assay with RAW-Dual [1] (setting [3]), 1.21; in the assay with RAW-Dual [1] (setting [4]), 0.573; with RAW-Dual [1] (setting [5]) it was 0.684.

Consider `O=C(Nc1ncc([N+](=O)[O-])s1)c1ccccc1O`, for which the “NF-kB SEAP reporter activity” value with RAW-Dual [2] (setting [7]) was found to be 0.945.

Consider `CN(C)CCOC(c1ccc(Cl)cc1)c1ccccn1.O=C(O)/C=C\C(=O)O` (stereo unspecified) (library stock concentration (final ~1000-fold dilution): 10 mM), for which the “NF-kB SEAP reporter activity” value turned out to be 1.1 in the assay with RAW-Dual [1] (agonist: LPS (TLR4) 0.1 ug/mL), 0.846 with RAW-Dual [1] (setting [3]), 1.07 in the assay on RAW-Dual [1] (setting [4]) and 1.09 in the assay on RAW-Dual [1] (setting [5]).

Turning to `CN(C)CCOC(c1ccc(Cl)cc1)c1ccccn1.O=C(O)/C=C\C(=O)O` (stereo unspecified), the “NF-kB SEAP reporter activity” value in the assay on RAW-Dual [2] (setting [7]) was 0.989.

`Cl.O=C1C2CCCCC2C(=O)N1CCCCN1CCN(c2nsc3ccccc23)CC1` (stereo unspecified): in the assay with RAW-Dual [2] (setting [7]), the “NF-kB SEAP reporter activity” value is 0.868.

In the case of `Cl.O=C1C2CCCCC2C(=O)N1CCCCN1CCN(c2nsc3ccccc23)CC1` (stereo unspecified) (library stock concentration (final ~1000-fold dilution): 10 mM), the “NF-kB SEAP reporter activity” value with RAW-Dual [1] (agonist: LPS (TLR4) 0.1 ug/mL) is 0.671; in the assay on RAW-Dual [1] (setting [3]), 0.536; in the assay with RAW-Dual [1] (setting [4]), 0.848; in the assay on RAW-Dual [1] (setting [5]), 0.888.

`O=C(OC1CC2CC3CC(C1)N2CC3=O)c1c[nH]c2ccccc12` (stereo unspecified): the “NF-kB SEAP reporter activity” value in the assay on RAW-Dual [2] (setting [7]) stood at 0.823.

For `O=C(OC1CC2CC3CC(C1)N2CC3=O)c1c[nH]c2ccccc12` (stereo unspecified) (library stock concentration (final ~1000-fold dilution): 10 mM), the “NF-kB SEAP reporter activity” value is 0.553 with RAW-Dual [1] (agonist: LPS (TLR4) 0.1 ug/mL), 0.608 in the assay on RAW-Dual [1] (setting [3]), 0.712 in the assay on RAW-Dual [1] (setting [4]) and 0.66 in the assay on RAW-Dual [1] (setting [5]).

Consider `CC(C)CC(NC(=O)C1OC1C(=O)O)C(=O)NCCCCNC(=N)N` (stereo unspecified), for which the results for the “NF-kB SEAP reporter activity” value in the assay on RAW-Dual [2] (setting [6]) and in the assay with RAW-Dual [2] (setting [7]) were 0.971 and 1.11, respectively.

For the compound `CC(C)CC(NC(=O)C1OC1C(=O)O)C(=O)NCCCCNC(=N)N` (stereo unspecified) (library stock concentration (final ~1000-fold dilution): 10 mM), the “NF-kB SEAP reporter activity” value came to 0.999 in the assay on RAW-Dual [1] (agonist: LPS (TLR4) 0.1 ug/mL), 1.01 in the assay on RAW-Dual [1] (setting [3]), 1.12 in the assay with RAW-Dual [1] (setting [4]) and 1.12 in the assay on RAW-Dual [1] (setting [5]).

`CC(C)c1ccc(C(=O)NC(=N)N)cc1S(C)(=O)=O`: the “NF-kB SEAP reporter activity” value came out at 0.914 in the assay on RAW-Dual [2] (setting [6]) and 1.1 with RAW-Dual [2] (setting [7]).

For `CC(C)c1ccc(C(=O)NC(=N)N)cc1S(C)(=O)=O` (library stock concentration (final ~1000-fold dilution): 10 mM), the “NF-kB SEAP reporter activity” value in the assay on RAW-Dual [1] (agonist: LPS (TLR4) 0.1 ug/mL) is 1; in the assay on RAW-Dual [1] (setting [3]), 0.918; in the assay with RAW-Dual [1] (setting [4]) it was 0.983; in the assay on RAW-Dual [1] (setting [5]) it was 1.1.

As for `CCc1cncnc1N1CCN(Cc2nc3cc(C(F)(F)F)ccc3[nH]2)CC1`, the “NF-kB SEAP reporter activity” value with RAW-Dual [2] (setting [6]) worked out at 0.91; in the assay with RAW-Dual [2] (setting [7]) it was 0.753.
